# Results from PMC4336329 (PLoS ONE, 2015).
# The campaign covered roughly 310,000 compounds. About 14,000 (4.5%) showed an effect of 50% or more. Effects have a minus sign here. Some of the results follow.
# Target: human ether-à-go-go-related gene (hERG) potassium channel (human, UniProt Q12809)
# Assay: primary screen, population patch clamp on CHO cells stably expressing hERG
# 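Note: peak tail current of the secondary pulse compared with the same well before compound.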
# human ether-à-go-go-related gene (hERG) potassium channel, sequence (Q12809 whole entry, looked up): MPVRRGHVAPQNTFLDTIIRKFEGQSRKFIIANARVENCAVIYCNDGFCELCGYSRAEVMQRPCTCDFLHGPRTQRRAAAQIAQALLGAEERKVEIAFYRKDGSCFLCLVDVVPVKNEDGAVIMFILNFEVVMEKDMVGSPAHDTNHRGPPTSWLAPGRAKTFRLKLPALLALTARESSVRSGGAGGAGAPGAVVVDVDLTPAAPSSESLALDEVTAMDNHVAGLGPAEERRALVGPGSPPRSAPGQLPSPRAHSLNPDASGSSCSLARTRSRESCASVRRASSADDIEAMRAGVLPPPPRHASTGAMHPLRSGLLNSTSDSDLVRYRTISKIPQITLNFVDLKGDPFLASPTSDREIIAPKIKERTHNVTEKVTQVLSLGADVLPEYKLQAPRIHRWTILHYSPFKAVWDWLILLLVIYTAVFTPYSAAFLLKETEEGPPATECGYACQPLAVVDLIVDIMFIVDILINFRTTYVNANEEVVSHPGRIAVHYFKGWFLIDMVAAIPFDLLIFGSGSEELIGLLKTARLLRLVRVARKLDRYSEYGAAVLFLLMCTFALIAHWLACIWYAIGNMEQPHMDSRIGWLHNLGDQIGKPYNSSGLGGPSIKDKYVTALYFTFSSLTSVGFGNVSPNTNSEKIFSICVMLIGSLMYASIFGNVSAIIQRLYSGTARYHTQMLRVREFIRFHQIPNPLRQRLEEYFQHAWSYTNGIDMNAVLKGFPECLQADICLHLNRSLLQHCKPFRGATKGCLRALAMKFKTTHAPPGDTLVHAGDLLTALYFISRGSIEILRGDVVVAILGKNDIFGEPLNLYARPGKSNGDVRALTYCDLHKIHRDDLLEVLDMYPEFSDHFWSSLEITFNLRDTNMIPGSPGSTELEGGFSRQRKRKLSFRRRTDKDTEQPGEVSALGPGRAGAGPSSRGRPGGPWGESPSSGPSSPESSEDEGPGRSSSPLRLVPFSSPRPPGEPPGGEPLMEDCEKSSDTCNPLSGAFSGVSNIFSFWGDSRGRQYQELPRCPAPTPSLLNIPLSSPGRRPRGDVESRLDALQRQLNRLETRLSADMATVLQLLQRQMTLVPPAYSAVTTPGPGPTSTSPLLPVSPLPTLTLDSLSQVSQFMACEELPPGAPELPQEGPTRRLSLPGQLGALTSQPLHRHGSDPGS
row,SMILES,"hERG current change (%, negative = inhibition) at 10uM"
1,CC1(C)CC(=O)C2=C(C1)Nc1ccccc1N1C(=O)c3ccccc3C21 (stereo not drawn),-3.07%
2,COc1ccc(-c2nc3ccccc3n2CCC(C)C)cc1OC,-30.9%
3,O=C(CSc1nc2[nH]c(=O)cc(O)c2s1)Nc1ccc(Br)cc1,10.4%
4,COc1ccccc1C(=O)NCCC(=O)Nc1cccc(S(=O)(=O)N2CCCC2)c1,-5.97%
5,O=C(CCS(=O)(=O)c1ccc(Br)cc1)N1CCCCCC1,-25.3%
6,Cc1cc(C)cc(NS(=O)(=O)c2cc(C(=O)NCc3ccccn3)ccc2Cl)c1,-16.8%
7,COc1cc(S(=O)(=O)N2CCCCC2)ccc1NC(C)=O,-9.05%
8,CCOc1ccc(-n2c(O)c(N=Nc3ccc([N+](=O)[O-])cc3)c(=O)[nH]c2=O)cc1,28.8%
9,Cc1c(C(=O)NCCSCc2ccco2)cccc1[N+](=O)[O-],-5.94%
10,COC(=O)/C=C1/N/C(=N\c2nc(C)cc(C)n2)N(c2ccc(Cl)cc2)C1=O,3.82%
11,COc1cc2c(cc1OC)C(c1ccc(Br)cc1)NC(=O)C2 (stereo not drawn),12.1%
12,Cc1c(CN(C)CCc2ccccc2)c(=O)n(-c2ccccc2)n1C,-8.92%
13,CCC(=O)N(c1nnc(SCC(=O)NN2C(=O)NC3(CCCCC3)C2=O)s1)C1CC1,10.9%
14,COc1ccc(C2(CNC(=O)c3ccco3)CCOCC2)cc1,3.72%
15,CCC1CCCCN1C(=O)NC(=O)c1ccccc1 (stereo not drawn),30.3%
16,CCN(CC)Cc1c(C(=O)N/N=C/c2ccccn2)nnn1-c1nonc1N,-20.8%
17,CCNC(=O)NC(=O)C(C)OC(=O)c1cc(S(=O)(=O)N2CCCCCC2)ccc1OC (stereo not drawn),-26.9%
18,NC(C(=O)O)C(c1ccccc1)C(F)F (stereo not drawn),17.2%
19,CSc1ccc(NC(=O)NCc2ccccc2)cc1,19%
20,CCCCNC(=O)CSc1nnc(NC(C)=O)s1,-10.6%
21,CN1CCC(=C2c3ccccc3C(O)c3ccccc32)CC1 (stereo not drawn),1.49%
22,CCOc1ccc(CN(C)CC(=O)Nc2ccc(N3CCOCC3)cc2)cc1OC,-30%

row,SMILES,"hERG current change (%, negative = inhibition) at 10uM"
1,CCOc1ccc(C2/C(=C(\O)c3ccc4c(c3)OCCO4)C(=O)C(=O)N2CCCN2CCOCC2)cc1OC (stereo not drawn),3.69%
2,CCCn1c(=O)[nH]c(=O)c2c(C(=O)OCC)cc(-c3cccs3)nc21,-3.67%
3,CCOC(=O)c1ccc(NC(=O)COc2ccc(S(=O)(=O)NC(C)CC)cc2)cc1 (stereo not drawn),1.11%
4,O=S(=O)(c1ccc(N2CCN(Cc3ccc4c(c3)OCO4)CC2)nc1)N1CCOCC1,-32.1%
5,Cc1cnc(C(=O)OCC(=O)NC2CCCC(C)C2C)cn1 (stereo not drawn),6.02%
6,COc1ccccc1NC(=O)/C(=C\c1cccs1)NC(=O)c1ccco1,-18.1%
7,Cc1c(NC(=O)CCCCCN2C(=O)c3ccccc3C2=O)c(=O)n(-c2ccccc2)n1C,10.7%
8,COC(=O)c1ccc(CN2CCN(C3CCCC3)C(CCO)C2)cc1 (stereo not drawn),-32.2%
9,CC1(C)CC(=NOC(=O)c2ccccc2)CC(C)(C)N1O,8.56%
10,Cc1ccc(N/C=C2\CCCCC2=O)c(C)c1,-4.26%
11,CN1C2=CC=CC=CC2=[N+](C)C12C=CC(=[N+]([O-])[O-])C=C2[N+](=O)[O-] (stereo not drawn),-5.86%
12,CC(=O)Nc1cccc(NC(=O)c2ccc(Br)cc2)c1,15.8%
13,Cn1c(=O)c2c(ncn2CC(=O)Nc2ccc(N3CCOCC3)cc2)n(C)c1=O,15.4%
14,CC(C)CC(OC(=O)c1ccc(Cl)nc1)C(=O)NC1CCCC1 (stereo not drawn),13.8%
15,Cc1cccc(NC(=O)C2CCN(S(=O)(=O)c3c(C)[nH]c(=O)[nH]c3=O)CC2)c1,-15.3%
16,CCCNC(=S)N1CCC(NC(=O)Nc2ccc(C)cc2)CC1,14.7%
17,CCn1c(CCc2ccccc2)nc2ccccc21.Cl,-5.78%
18,Cc1nc(N/N=C/c2ccc(O)cc2O)cc(N2CCOCC2)n1,-2.03%
19,O=c1cc(O)c2ccccc2n1Cc1ccccc1F,7.81%
20,O=c1nccc(N/N=C/c2ccccc2O)[nH]1,17.5%
21,CCOc1ccc(CNC(=O)CCC(=O)N2Cc3ccccc3Oc3ncccc32)cc1,-51.1%
22,CSCCC(NC(=O)COc1ccccc1)C(=O)N1CCCC(C)C1 (stereo not drawn),10.4%

row,SMILES,"hERG current change (%, negative = inhibition) at 10uM"
1,CCOC(=O)c1c(-c2ccc(F)cc2)csc1NC(=O)CN1C(=O)NC2(CCCCC2C)C1=O (stereo not drawn),11.6%
2,CCN(CC(=O)Nc1ccc(NC(C)=O)cc1)C(=O)c1cccc(-n2cccc2)c1,0.603%
3,CN(C(=O)c1ccc2c(c1)OCO2)C1CCCCC1,19.2%
4,Cc1c(Cl)cccc1N1C(=O)CC(NNC(=O)c2cccs2)C1=O (stereo not drawn),6.66%
5,COC(=O)c1ccc(NC(=O)CS(=O)(=O)c2ccccc2)cc1,1.4%
6,Cc1c(Cl)cccc1NC(=O)COC(=O)Cn1cnc2c1c(=O)n(C)c(=O)n2C,4.63%
7,CCCc1nc2cc3c(cc2[nH]1)n(C)c(=O)n3C.Cl,9.08%
8,O=C(C[n+]1cccc2ccccc21)c1ccc(Br)cc1.[Br-],-45.1%
9,COc1ccc2oc(=O)c(C(=O)Nc3cccc(C(C)=O)c3)cc2c1,17.3%
10,O=C(NCCN=C1NS(=O)(=O)c2ccccc21)c1ccncc1,7.39%
11,COC(=O)CCC(=O)NNC(=O)c1ccc(Br)cc1,6.12%
12,O=C(CSc1nc(-c2ccco2)cc(C(F)(F)F)n1)Nc1ccccc1C(F)(F)F,-2.76%
13,Cc1cccc(NC(=O)Cn2cccc2)c1,-5.5%
14,COc1cc(-c2cc(C(=O)Nc3cccc(C(C)=O)c3)c3ccccc3n2)cc(OC)c1OC,9.49%
15,Cl.O=C(c1ccc(NS(=O)(=O)c2cccs2)cc1)N1CCN(c2ccccc2Cl)CC1,-20.6%
16,CC(Oc1ccc(Cl)cc1Cl)C(=O)NNC(=O)c1ccncc1 (stereo not drawn),-16.5%
17,CSc1cccc(NS(=O)(=O)c2ccccc2)c1,1.03%
18,CC(CNC(=O)COC(=O)c1ccco1)c1ccccc1 (stereo not drawn),-12.1%
19,COc1ccc(S(=O)(=O)N2CCCOC2CNC(=O)C(=O)NCCCN2CCOCC2)cc1C (stereo not drawn),-2.43%
20,Cc1ccccc1-n1c(C)nnc1SCC(=O)NNC(=O)c1ccccc1,5.31%
21,CSCCC(NC(=O)c1ccc([N+](=O)[O-])cc1Cl)C(=O)OCC(=O)NCC(F)(F)F (stereo not drawn),-16.7%
22,O=C(N/N=C/c1c[nH]c2ccccc12)c1ccc(Br)cc1,-9.13%

row,SMILES,"hERG current change (%, negative = inhibition) at 10uM"
1,CC1CCN(C(=O)CSc2nnc(Cc3cc(=O)[nH]c(=O)[nH]3)n2-c2ccc(Cl)cc2)CC1,1.16%
2,COc1cccc(N(C(=O)c2sc(C)nc2C)C(C(=O)NCC2CCCO2)c2ccccc2)c1 (stereo not drawn),-8.87%
3,COc1ccc(/C=C2\SC(=S)N(CCC(=O)N3CCCCC3CCO)C2=O)cc1 (stereo not drawn),20%
4,CC(C)c1ccc(OCC(=O)N2CCc3ccccc3C2)cc1,3.06%
5,COC(=O)COc1ccc(-c2nccc(-c3ccc(Br)cc3)n2)cc1,-4.37%
6,CCOC(=O)N1CCN(S(=O)(=O)Cc2ccccc2)CC1,15.5%
7,CSc1nncc(-c2ccccc2)n1,-0.169%
8,CCN(Cc1ccc(OC)c(F)c1)C(=O)/C=C/c1ccc(S(=O)(=O)N2CCOCC2)cc1,-18.3%
9,COc1cc(C(=O)OCC(=O)Nc2cccc(S(=O)(=O)N3CCOCC3)c2)ccc1OCC(C)C,18.3%
10,O=S(=O)(NCCc1ccc2c(c1)OCCO2)c1cccs1,-1.31%
11,COc1cccc(CN2C(=O)[C@@H]3Cc4c([nH]c5ccccc45)C(C)(C)N3C2=O)c1,-3.35%
12,C/C(=N\NC(=S)NC1CCCCC1)c1c(F)cccc1F,-35%
13,Oc1c(C=C2N=c3ccccc3=N2)sc(=S)n1C1CCCCC1 [17433500],6.8%
14,Cc1ccc(S(=O)(=O)N2CCC(C(=O)N[C@@H](C)C(=O)Nc3ccc4c(c3)OCO4)CC2)cc1,-9.41%
15,NS(=O)(=O)c1cc(C(=O)Nc2ccc3c(c2)OCCCO3)ccc1Cl,17.5%
16,COc1cccc(C2CC(c3cccc(NS(C)(=O)=O)c3)=NN2C(=O)c2ccccc2)c1OC (stereo not drawn),-40.5%
17,C=C1CCN([C@H](C(=O)NCc2ccccc2)C(C)C)S(=O)(=O)c2ccccc21,3.33%
18,O=C1C2CC=CCC2C(=O)N1c1ccc(Cc2ccncc2)cc1 (stereo not drawn),-25.4%
19,CCN(C(=O)COC(=O)c1ccc2ccccc2c1)c1c(N)n(Cc2ccccc2)c(=O)[nH]c1=O,14.1%
20,CC(C)CN(C(=O)COc1ccc(C(C)(C)C)cc1)C1CCS(=O)(=O)C1 (stereo not drawn),-22.5%
21,COc1cc(/C=C(/NC(=O)c2ccccc2)C(=O)N2CCN(C)CC2)c([N+](=O)[O-])cc1OC,9.52%
